Laboratory results reported in PubChem BioAssay AID1508624 (National Center for Advancing Translational Sciences (NCATS), 2021).
About 120 (0.25%) of roughly 48,000 compounds were called active. About 4% were inconclusive and are not listed. Calls come from the whole dose curve; as a rule, active = well fitted activation curve with a large enough effect; inconclusive = small, poorly fitted or top-dose-only effect, or another doubt; inactive = no such curve, though single readings can be large or run the other way. This is one part of the list.

Experiment: Primary qHTS for Identification of Small Molecule Activators of Huntingtin-Antisense Promoter Activity; note: nearly all actives have a fitted effect of over 55% in size
Details: HEK293 HTT-AS promoter firefly luciferase reporter, 24 h; series mostly up to 57.5 µM; activity change, positive = activation: at the top concentration
Procedure, shortened: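 HEK293 Fluc reporter, 2,500 cells/well, 24 h pre-culture; cpds up to 57.5 uM final, 24 h 37 degrees C; Dual-Glo, 10 min RT; normalized vehicle = 0%, zero RLU = -100%.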

Activity change, positive = activation, inactive:
Cc1cn(C)c(CC(=O)NCc2ccc(Cl)cc2)c1C(=O)O -10.3%, Cc1ccc(CCNS(=O)(=O)c2ccc3c(c2)C(C(C)C)C(=O)N3)cc1 (configuration not stated) -16.9%, COc1cc(NC(=O)CN2C(=O)CCc3cc(Br)ccc32)cc(OC)c1OC -23.9%, CC(=O)N1c2ccccc2C(=O)C1N1CCN(c2cccc(Cl)c2)CC1 (configuration not stated) -33.4%, COc1ccc(Cl)cc1NC(=O)CSC1=Nc2ccccc2C2=NC(CCC(=O)NCc3ccco3)C(=O)N12 (configuration not stated) -15.9%, CCOC(=O)c1c(NC(=O)c2cc(=O)c3cc(C)ccc3o2)sc2c1CCCC2 11.2% [at 11.5 µM, percent change from vehicle, -100% = no light], Cc1ccc(Cn2c(CCNC(=O)c3cccc(C)c3)nc3ccccc32)cc1 -33.9%, Cc1cccc(NC(=O)CN2C(=O)C3(SCC(=O)N3c3ccccc3)c3ccccc32)c1 (configuration not stated) -33.2%, Cc1ccc(Cn2c(C(=O)O)c(CNCc3ccc(C)o3)c3ccc(C)cc32)cc1 -26.2%, Cc1ccc(S(=O)(=O)N2CCN(Cc3ccccc3Cl)CC2)cc1 -22.6%, NC(=O)c1cnccn1, CC(C)Cn1cc(NC(=O)NCc2cccc(Cl)c2)c2ccccc2c1=O -14.6%, COc1ccc(NC(=O)c2cccc(N3CCCS3(=O)=O)c2)c(OC)c1 11.8%, O=C(NCCC1=CCCCC1)c1ccc2c(c1)sc1nc(-c3ccc(F)cc3)cn12 19.2%, O=C(NCCc1ccccc1)c1ccc2c(c1)N(Cc1ccc(F)cc1)C(=O)CS2 -51.2%, Cc1ccc2oc(C(=O)Nc3sc4c(c3C(=O)NCC3CCCO3)CCC4)cc(=O)c2c1 (configuration not stated) 12.5% [at 11.5 µM, percent change from vehicle, -100% = no light], CCN(CC)c1ccc(NC(=O)CN2CCN(CC(=O)Nc3ccc(Cl)cc3)CC2)cc1 -12.2%, COc1cccc(CNC(=O)Cn2ncc3c(=O)oc4ccccc4c32)c1 -16.7%, Cc1ccc(CSc2cn(CC(=O)N3CCCCCC3)c3ccccc23)cc1 -0.854%, O=S(=O)(NCc1ccc(F)cc1)c1ccc(N2CCCCS2(=O)=O)cc1 -29.3%, CCCN(Cc1cc2cccc(C)c2[nH]c1=O)C(=O)c1cccc(Cl)c1 -4.72%, CCNC(=O)[C@@H]1CCCN1C(=O)[C@H](CCCN=C(N)N)NC(=O)[C@H](CC(C)C)NC(=O)CNC(=O)[C@H](Cc1ccc(O)cc1)NC(=O)[C@H](CO)NC(=O)[C@H](Cc1c[nH]c2ccccc12)NC(=O)[C@H](Cc1cnc[nH]1)NC(=O)[C@@H]1CCC(=O)N1 -3.14%, CCOc1ccc(C2c3c(-c4cc(C)ccc4O)n[nH]c3C(=O)N2Cc2cccnc2)cc1OCC (configuration not stated) -21.1%, COc1ccccc1NC(=O)CC(C)n1nc(C)cc1C (configuration not stated) -1.55%, CCOC(=O)c1ccc(NC(=O)CSc2nc3c(c(=O)[nH]2)CN(Cc2ccccc2)CC3)cc1 -25.5%, COc1ccccc1Nc1ncc2c(n1)CCN(Cc1ccc(C)s1)C2 7.2%, Cc1cc(F)ccc1NC(=O)CCS(=O)(=O)c1cc2c(cc1C)NC(=O)CO2 -15.9%, COc1ccc(OC)c(CCNC(=O)CCCn2c(=O)c3cccn3c3ccc(F)cc32)c1 -1.44%, COc1ccc(-n2nc3c(N4CCC(C(=O)NCc5ccccc5C)CC4)nnc(C)c3c2C)cc1 -30.7%, CCOC(=O)N1CCC(NC(=O)c2c(C)nn(-c3cccc(C)c3)c2-n2cccc2)CC1 -19.8%, Cc1ccc2c(=O)c(C(=O)c3cccc(Cl)c3)cn(CC(=O)NC3CCCCC3)c2n1 -20.2%, Cc1ccc(N(CC(=O)N2CCN(c3ccc(F)cc3)CC2)S(=O)(=O)c2c(C)noc2C)cc1 -20.6%, CC(C)(C)C(=O)NCCc1nc2ccccc2n1CCCCOc1ccccc1 -29.1%, CCCCN1CC(c2nc3ccccc3n2CCCCOc2ccccc2C)CC1=O (configuration not stated) -51.3%, CC(=O)OC1=CN(Cc2ccccc2)S(=O)(=O)c2ccccc21 -10.8%, COc1ccc(OC)c(S(=O)(=O)NCCc2sc(-c3cccnc3)nc2C)c1 -4.46%, O=C(c1ccc2c(c1)N(Cc1ccc(Cl)cc1)C(=O)c1ccccc1S2(=O)=O)N1CCCCCC1 -34.9%, CCCN(Cc1cccs1)C(=O)Nc1cc(C)ccc1OC -7.62%, Cc1cccc(C)c1Nc1c(-c2ccccc2Cl)nc2cnccn12 -35.9%, COc1ccccc1N1CCN(c2nc3ccc(C(=O)c4ccccc4)cc3n3c(C)nnc23)CC1 0.753%, Cc1ccc(-c2onc(C)c2C)cc1S(=O)(=O)NCc1cccs1 -45.9%, COc1ccc(OC)c(CNC(=O)C2CCN(S(=O)(=O)N3CCCCC3)CC2)c1 -4.54%, O=C(COc1ccc(F)cc1)Nc1ccc2nc(SCC(=O)N3CCCC3)sc2c1 -21%, COc1ccccc1N1CCN(C2C(=O)c3ccccc3N2C(C)=O)CC1 (configuration not stated) -15.5%, Cc1ccc(-c2cn3c(n2)sc2cc(C(=O)NCCC4=CCCCC4)ccc23)c(C)c1 23.3%, CCOc1ccc(S(=O)(=O)NCC(c2ccc(N(C)C)cc2)N2CCCC2)cc1 (configuration not stated) -9.46%, CCOc1ccc(-c2nnc(SCC(=O)Nc3ccccc3C(F)(F)F)o2)cc1 -25.9%, Cc1ccc(N2C(=O)C(CC(=O)Nc3ccc(F)cc3)N(CCC3=CCCCC3)C2=O)cc1 (configuration not stated) -53.8%, Cc1cccc(C)c1NC(=O)c1cc(S(N)(=O)=O)c(Cl)cc1O 6.84%, Cc1cc(C)c(S(=O)(=O)Nc2ccc3oc4c(c3c2)CCCC4)cc1C -17.1%, COCCCNC(=O)c1ccc(CSc2nc3cccnc3n2Cc2ccc(OC)cc2)cc1 -15%, CC(CNC(=O)CCn1c(=O)c2cccn2c2ccc(F)cc21)c1ccccc1 (configuration not stated) -20.1%, CCOC(=O)c1ccccc1NC(=O)CSc1c(C)cnc2c1c(=O)n(C)c(=O)n2C -7.67%, Cc1nc2c(c(C)c1CCC(=O)N1CCN(c3ccccc3)CC1)c(=O)n(C)c(=O)n2C -14.5%, COc1ccc(C2C=C(c3ccccc3)Nc3nc(NS(=O)(=O)c4ccccc4)nn32)cc1 (configuration not stated) -17.8%, O=C(Nc1cccc(Cl)c1Cl)c1cc(S(=O)(=O)N2CCCCC2)ccc1F -8.89%, Cc1ccc(C)c(Cn2c(=O)n(-c3ccc(Cl)cc3)c(=O)c3c4c(sc32)CCC4)c1 -5.95%, O=C(CCNNC(=O)c1ccncc1)NCc1ccccc1 -7.52%, CCOC(=O)c1c(C)[nH]c(C)c1S(=O)(=O)N1CCC(C(=O)N2CCN(c3cccc(C)c3)C(C)C2)CC1 (configuration not stated) -18.2%, O=C(Nc1ccc(C(F)(F)F)cc1)c1cc(S(=O)(=O)NC2CCCCCC2)ccc1F -74.7%, CCOC(=O)c1ccc(CN(Cc2ccc(F)cc2)S(=O)(=O)c2ccc(F)cc2)cc1 -15.9%, Cc1nc2ccccn2c(=O)c1CCN1CCC(C(=O)c2ccc(F)cc2)CC1 -18.9%, CCCOc1ccc(C2c3c(oc4ccccc4c3=O)C(=O)N2c2ccc(C)cn2)cc1OCC (configuration not stated) -10%, Cc1ccc(C)c(NC(=O)Nc2nnc(N(CC(C)C)CC(C)C)s2)c1 -22.9%, Cc1ccc(CCNC(=O)c2ccc3c(=O)n(-c4ccc(C)cc4)c(=O)[nH]c3c2)cc1 22.9%, CCOc1cccc2sc(NC(=O)c3ccc(S(=O)(=O)N4CCCc5ccccc54)cc3)nc12 -24.6%, Cc1ccccc1S(=O)Cc1ccc(C(=O)NC2CCCCCC2)o1 (configuration not stated) -15%, COc1ccc2oc(=O)c(-c3nc(-c4cc(OC)c(OC)c(OC)c4)no3)cc2c1 -2.88%, Cc1ccccc1N1CCN(CCc2nnc3n2CCCC3)CC1 -2.81%, CCC(=O)c1ccc2c(c1)N(CCCN(C)C)c1ccccc1S2 -16.3%, O=C(Cn1cc(SCc2cccc(F)c2)c2ccccc21)N1CCCC1 14.3%, Cc1cc2oc(C(=O)Nc3sc4c(c3C(=O)NCc3ccco3)CCC4)cc(=O)c2cc1C -0.994%, Cc1ccc2c(CNCc3cccc(Cl)c3)c(C(=O)O)n(Cc3ccc(F)cc3Cl)c2c1 -9.1%, CCOc1ccc(OCC)c(NC(=O)c2nnn(Cc3cc(Br)ccc3OC)c2N)c1 -10.4%, COCCCNC(=O)c1cn(CC(C)C)c(=O)c2c1c1ccccc1n2C -6.53%, COc1cc(OC)c(NS(=O)(=O)c2cc3c(cc2C)NC(=O)CO3)cc1Cl -26.5%, COCCn1c(CNC(=O)c2cccc(N(C)C)c2)nc2cccnc21 19.3%, CC(=O)c1ccc(N2CCN(C(=O)C3CCN(S(=O)(=O)c4ccc(Br)s4)CC3)CC2)cc1 -39.7%, Cc1ccc(NC(=O)c2nc(S(C)(=O)=O)ncc2N(Cc2ccco2)Cc2ccccc2F)c(C)c1 -18.7%, CCN(Cc1ccccc1)C(=O)CCS(=O)(=O)c1cc2c(cc1Cl)NC(=O)CO2 -8.97%, CCCCn1c(=O)n(Cc2ccccc2F)c(=O)c2[nH]c(Cc3ccc(NC(C)=O)cc3)nc21 -25.8%, Nc1ccc(-c2ccc3ncc4ccc(=O)n(-c5cccc(C(F)(F)F)c5)c4c3c2)cn1 -37%, COC(=O)c1cc(NC(=O)c2oc(=O)c3ccccc3c2-c2ccccc2)cc(C(=O)OC)c1 -10.7%, Cc1ccc(NC(=O)CN2C(=O)CSc3ccc(S(=O)(=O)N4CCCC4)cc32)cc1F -19.5%, Cc1ccc(NC(=O)c2c(NC(=O)c3ccco3)sc3c2CCC(C(C)(C)C)C3)c(C)c1 (configuration not stated) -5.28%, CCc1ccc(NC(=O)c2cc(S(=O)(=O)NC3CCCC3)ccc2F)cc1 -24.4%, COc1cc(OC)c(NC(=O)c2nnn(Cc3ccc(C)cc3)c2N)cc1Cl -26.1%, O=C(Cn1ncc2c3ccccc3n(Cc3ccc(Cl)cc3)c2c1=O)N1CCCCCC1 -19.5%, O=C(Cc1ccc(F)cc1)NC1CC(=O)N(c2ccc3c(c2)OCCO3)C1 (configuration not stated) -15.6%, COc1cccc(-c2cn3c(n2)sc2cc(C(=O)NC4CCCCCC4)ccc23)c1 5.77%, COc1ccc(Br)cc1CNC(=O)Cn1c(=O)c2cccn2c2ccc(F)cc21 -7.27%, Cc1ccccc1Cn1cc(CCC(=O)NC(C)c2ccccc2)c2ccccc21 (configuration not stated) -22.1%
